{"source": "paper PMC4336329", "about": "(PLoS ONE, 2015)", "note": "Out of some 310,000 compounds screened, about 2,200 (0.71%) showed an effect of 50% or more. Effects have a minus sign here. Some of the results follow.", "data": [{"biological_target": "human ether-à-go-go-related gene (hERG) potassium channel (human, UniProt Q12809)", "sequence (Q12809 whole entry, looked up)": "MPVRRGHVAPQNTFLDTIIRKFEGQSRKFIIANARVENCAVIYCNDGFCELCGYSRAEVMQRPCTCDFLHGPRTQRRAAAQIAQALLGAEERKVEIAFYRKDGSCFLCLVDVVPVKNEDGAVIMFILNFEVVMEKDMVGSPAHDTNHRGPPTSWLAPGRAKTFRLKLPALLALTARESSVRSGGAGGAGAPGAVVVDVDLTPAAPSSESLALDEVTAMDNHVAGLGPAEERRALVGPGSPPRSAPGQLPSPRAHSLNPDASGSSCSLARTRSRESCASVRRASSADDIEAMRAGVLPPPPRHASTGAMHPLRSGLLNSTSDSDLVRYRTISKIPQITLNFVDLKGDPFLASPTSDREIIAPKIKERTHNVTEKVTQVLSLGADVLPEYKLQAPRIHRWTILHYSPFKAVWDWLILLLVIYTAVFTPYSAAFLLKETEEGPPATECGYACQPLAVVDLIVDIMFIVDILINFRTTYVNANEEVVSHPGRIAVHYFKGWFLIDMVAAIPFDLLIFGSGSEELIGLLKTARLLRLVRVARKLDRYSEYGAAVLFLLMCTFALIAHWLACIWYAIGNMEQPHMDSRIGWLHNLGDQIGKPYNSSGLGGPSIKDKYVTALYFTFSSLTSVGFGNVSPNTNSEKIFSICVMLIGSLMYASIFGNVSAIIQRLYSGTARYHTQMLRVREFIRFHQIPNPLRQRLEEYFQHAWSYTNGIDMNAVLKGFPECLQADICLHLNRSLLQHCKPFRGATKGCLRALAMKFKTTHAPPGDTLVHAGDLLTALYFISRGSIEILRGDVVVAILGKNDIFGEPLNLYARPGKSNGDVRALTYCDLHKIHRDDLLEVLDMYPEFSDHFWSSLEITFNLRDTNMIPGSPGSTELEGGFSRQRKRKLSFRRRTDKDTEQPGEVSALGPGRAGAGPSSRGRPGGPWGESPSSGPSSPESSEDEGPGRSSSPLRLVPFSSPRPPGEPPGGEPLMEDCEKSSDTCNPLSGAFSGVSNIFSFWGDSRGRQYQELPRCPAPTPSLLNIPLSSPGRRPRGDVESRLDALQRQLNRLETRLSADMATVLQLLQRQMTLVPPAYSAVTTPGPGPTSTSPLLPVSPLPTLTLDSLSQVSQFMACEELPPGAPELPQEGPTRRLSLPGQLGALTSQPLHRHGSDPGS", "assay": "primary screen, population patch clamp on CHO cells stably expressing hERG", "units": {"hERG current change (%, negative = inhibition) at 1uM": "%"}, "values": [{"molecule": "COc1cccc(OC)c1NC(=O)NC(=O)c1c(OC)c(Br)cc([N+](=O)[O-])c1OC", "hERG current change (%, negative = inhibition) at 1uM": 7.77}, {"molecule": "Cc1cc2cc3c(cc2nc1SCC(=O)Nc1ccccc1)CCC3", "hERG current change (%, negative = inhibition) at 1uM": 3.4}, {"molecule": "Cc1cccc(NC(=S)N2CCCCC2)c1", "hERG current change (%, negative = inhibition) at 1uM": 0.732}, {"molecule": "O=Cc1ccc(N2Cc3ccccc3C2)cc1", "hERG current change (%, negative = inhibition) at 1uM": 13}, {"molecule": "Cc1coc2c(O)cc3c(c12)OC1(N2CCCCC2)C(=O)NCCCC31", "note": "(centres unmarked)", "hERG current change (%, negative = inhibition) at 1uM": 4.44}, {"molecule": "CC[C@H](C)[C@@H]1NC(=O)c2cc([N+](=O)[O-])cc(F)c2NCCCC[C@@H](C(N)=O)NC(=O)[C@H](CCCCN)NC1=O", "hERG current change (%, negative = inhibition) at 1uM": 12.6}, {"molecule": "CCOC(=O)NC(=O)c1cn(CCNCCO)c(=O)[nH]c1=O", "hERG current change (%, negative = inhibition) at 1uM": 7.96}, {"molecule": "CCOc1ccc(NC(=O)c2cccc3c2C(=O)N(Cc2cccnc2)C3)cc1", "hERG current change (%, negative = inhibition) at 1uM": -0.0027}, {"molecule": "Cc1cc(C)c(S(=O)(=O)Nc2cnc3ccccc3c2)c(C)c1", "hERG current change (%, negative = inhibition) at 1uM": 13.3}, {"molecule": "Cc1ccccc1NC(=O)Cc1nc(COC(=O)c2nc(Cl)ccc2Cl)cs1", "hERG current change (%, negative = inhibition) at 1uM": -6.18}, {"molecule": "O=C(Cc1ccccc1)Nc1ccc2oc(-c3ccncc3)nc2c1", "hERG current change (%, negative = inhibition) at 1uM": 6.04}, {"molecule": "COc1cccc(C(=O)Nc2nc3ccccc3[nH]2)c1", "hERG current change (%, negative = inhibition) at 1uM": 5.44}, {"molecule": "Cc1ccc(-c2nnc(CCC(=O)NCC3C4CC5CC(C4)CC3C5)o2)s1", "note": "(centres unmarked)", "hERG current change (%, negative = inhibition) at 1uM": 7.52}, {"molecule": "COC(=O)CCNS(=O)(=O)c1ccc2ccccc2c1", "hERG current change (%, negative = inhibition) at 1uM": 11.7}, {"molecule": "O=C(CCCCCN1C(=O)c2ccccc2C1=O)NCCc1nc2ccccc2[nH]1", "hERG current change (%, negative = inhibition) at 1uM": 12.4}, {"molecule": "COc1ccc2c3c(cccc13)N(C)N=C2C", "hERG current change (%, negative = inhibition) at 1uM": 3.57}, {"molecule": "CCOc1ccc(NS(=O)(=O)c2ccc(C(=O)NCC(c3ccccc3OC)N3CCCC3)cc2)cc1", "note": "(centres unmarked)", "hERG current change (%, negative = inhibition) at 1uM": 1.53}, {"molecule": "CCN(CC)CCCNC(=O)c1cc2nc(-c3ccccc3)cc(C(F)(F)F)n2n1", "hERG current change (%, negative = inhibition) at 1uM": 14.7}, {"molecule": "CC(C)CCNC(=O)c1sc2ccc(S(=O)(=O)N3CCCCC3)cc2c1N", "hERG current change (%, negative = inhibition) at 1uM": 10.9}, {"molecule": "CC(=O)c1ccc(OCCCC(=O)Nc2cc(S(=O)(=O)N(C)C)ccc2C)cc1", "hERG current change (%, negative = inhibition) at 1uM": 5.23}, {"molecule": "COc1cc(C2C(C#N)=C(N)OC3=C2C(=O)CCC3)ccc1OC(=O)N1CCOCC1", "note": "(centres unmarked)", "hERG current change (%, negative = inhibition) at 1uM": 5.59}, {"molecule": "COc1ccc(OCC(=O)Nc2cc(-c3nn(C)c(=O)c4ccccc34)ccc2N2CCOCC2)cc1", "hERG current change (%, negative = inhibition) at 1uM": 9.48}, {"molecule": "COc1ccc(Cl)cc1S(=O)(=O)N1CCCC1", "hERG current change (%, negative = inhibition) at 1uM": 8.04}, {"molecule": "CC(Cc1ccccc1)C(=O)Nc1ccccc1", "note": "(centres unmarked)", "hERG current change (%, negative = inhibition) at 1uM": 8.95}, {"molecule": "CCCNC(=O)c1ccc(Cn2cc(-c3ccc(OC)cc3)nc2C(C)N)cc1", "note": "(centres unmarked)", "hERG current change (%, negative = inhibition) at 1uM": 13.5}, {"molecule": "CCCn1cccc(C(=O)Nc2ccc(OC)cc2)c1=O", "hERG current change (%, negative = inhibition) at 1uM": 2.25}, {"molecule": "COc1ccc(NC(=O)CN2CCC(C)CC2)c([N+](=O)[O-])c1", "hERG current change (%, negative = inhibition) at 1uM": 1.92}, {"molecule": "CC(C)C(=O)N1CC(=O)Nc2ccc(F)cc2C1c1ccc(F)cc1", "note": "(centres unmarked)", "hERG current change (%, negative = inhibition) at 1uM": 4.63}, {"molecule": "O=C(NCCNC(=O)c1cnccn1)c1ccc(Cl)cc1", "hERG current change (%, negative = inhibition) at 1uM": 0.0873}, {"molecule": "COc1cccc(C(=O)CSc2nnc(-c3cccs3)o2)c1", "hERG current change (%, negative = inhibition) at 1uM": 3.99}, {"molecule": "COC(=O)C1=C(C)NC2=C(C(=O)CCC2)C1c1coc2ccccc2c1=O", "note": "(centres unmarked)", "hERG current change (%, negative = inhibition) at 1uM": 5.33}, {"molecule": "CCc1ccc(C2=C/C(=C/c3cccnc3)C(=O)O2)cc1", "hERG current change (%, negative = inhibition) at 1uM": 9.95}, {"molecule": "Cc1ccccc1NC(=O)Nc1nnc(Cc2ccc([N+](=O)[O-])cc2)s1", "hERG current change (%, negative = inhibition) at 1uM": 4.28}, {"molecule": "O=C(CSc1ccc2nnc(-c3ccccn3)n2n1)Nc1ccccc1C(F)(F)F", "hERG current change (%, negative = inhibition) at 1uM": -3.76}, {"molecule": "Cc1ccc(-c2noc(-c3ccccc3F)n2)cc1", "hERG current change (%, negative = inhibition) at 1uM": 16.3}, {"molecule": "CCCCN1C2CCCC1CC(NC(=O)c1cccc(Cl)c1)C2", "note": "(centres unmarked)", "hERG current change (%, negative = inhibition) at 1uM": -63}, {"molecule": "O=C(CN1C(=O)NC2(CCCC2)C1=O)OCc1c(F)cccc1Cl", "hERG current change (%, negative = inhibition) at 1uM": 11.9}, {"molecule": "CCN(CC)C(=O)N1CCN(S(=O)(=O)c2ccc(C)cc2)CC1", "hERG current change (%, negative = inhibition) at 1uM": -12.5}, {"molecule": "O=C(c1ccc(F)c([N+](=O)[O-])c1)N1CC2CC(C1)c1cccc(=O)n1C2", "note": "(centres unmarked)", "hERG current change (%, negative = inhibition) at 1uM": 14}, {"molecule": "CC(C)[C@H]1CN(C)CCN1Cc1cn(C)nc1-c1cccc(Cl)c1", "hERG current change (%, negative = inhibition) at 1uM": 12.3}, {"molecule": "O=[N+]([O-])c1ccc(N2CCOCC2)c(S(=O)(=O)N2CCOCC2)c1", "hERG current change (%, negative = inhibition) at 1uM": 3.84}, {"molecule": "O=C1N/C(=N/N=C/c2ccccc2O)SC1Cc1ccc(F)cc1", "note": "(centres unmarked)", "hERG current change (%, negative = inhibition) at 1uM": 16.3}, {"molecule": "O=C(O)CCN1C(=O)c2ccc(NC(=O)CSc3ccc(Cl)cc3)cc2C1=O", "hERG current change (%, negative = inhibition) at 1uM": 15.8}, {"molecule": "C=CCNC(=O)c1c[nH]c2ccc(S(=O)(=O)N(C)c3ccc(OCC)cc3)cc2c1=O", "hERG current change (%, negative = inhibition) at 1uM": 11.9}]}]}
